The supplement of paper PMC3334620
In all, about 33,000 sequences were measured (“E-score (-0.5 to 0.5)”: median about -0.035, highest 2% from about 0.34 on). The list shows a part of the results.

The sequences below were run against T1, Mot3 (UniProt P54785) (assay: PBM E-score (8-mer binding enrichment) (E-score (-0.5 to 0.5)); higher = stronger / more preferred TF binding; most listed sequences are background and not binding sites). Settings: protein concentration: 200 nM; construct: GST-full length.
T1 sequence: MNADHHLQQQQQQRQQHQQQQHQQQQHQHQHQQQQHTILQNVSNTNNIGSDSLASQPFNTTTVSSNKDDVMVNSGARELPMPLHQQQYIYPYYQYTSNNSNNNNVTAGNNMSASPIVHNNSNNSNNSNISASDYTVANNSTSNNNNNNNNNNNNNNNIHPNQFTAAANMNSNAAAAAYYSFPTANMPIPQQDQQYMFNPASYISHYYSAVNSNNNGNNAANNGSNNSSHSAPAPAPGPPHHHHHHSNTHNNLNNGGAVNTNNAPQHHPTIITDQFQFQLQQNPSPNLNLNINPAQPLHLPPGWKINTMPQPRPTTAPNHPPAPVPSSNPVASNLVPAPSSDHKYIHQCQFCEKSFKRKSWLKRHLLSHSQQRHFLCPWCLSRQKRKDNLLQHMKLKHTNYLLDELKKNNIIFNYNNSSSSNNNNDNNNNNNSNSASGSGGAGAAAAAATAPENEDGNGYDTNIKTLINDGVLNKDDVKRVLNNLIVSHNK
Description: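 Universal 'all 10-mer' protein binding microarrays (Agilent AMADID 015681) probed with GST-tagged S. cerevisiae TFs (full-length or DBD) made by in vitro transcription/translation (PURExpress), about 100-200 nM. Bound TF was detected with fluorescent anti-GST. Each ungapped 8-mer (which stands for itself and its reverse complement) is scored by the PBM enrichment score (E-score), a modified Wilcoxon-Mann-Whitney statistic from -0.5 to +0.5, computed with the Universal PBM Analysis Suite. Scale: above 0.35 generally sequence-specific binding.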

Sequence	PBM E-score
GGGGTCAA	-0.179
AAACGAGA	-0.125
AGTGCCTG	0.49
GGAAGTCA	-0.15
AGCATGCC	-0.131
CGCCCGCA	-0.212
CACGCTAA	0.00779
ACTTTCTC	-0.0771
GTCGATCA	0.00475
GGTTTCAA	-0.0441
GCCCGGTA	-0.0651
ATTGAGCG	0.0278
AATGCATG	0.187
CGGACTGC	0.0669
ATTCGTTA	0.0498
AATCTTGA	-0.0182
CGTAAATA	0.261
ATTTTCCG	0.025
ACTGTTTA	0.15
AAGCCATG	0.0568
ATGTTAAC	0.397
AGTCTCAG	-0.0777
ATCTACTA	0.035
GATACTTA	-0.0786
CCAATCGA	-0.095

Sequence	PBM E-score
AGCAGCTA	-0.04
GACACCGA	-0.0506
AACATAAG	0.334
CACTCAGG	0.0625
AACCCACC	-0.177
CAACTGGG	-0.226
CCCTGTTC	-0.0727
TGGCAGAA	0.0168
GATCCCCA	-0.114
CGAATCTA	-0.0163
GTTGCATA	0.0413
CTTCCAAG	-0.0526
GAGCACAC	-0.0804
ATCTCGCG	-0.0186
AGTGGTGC	-0.0858
GCCTGACC	-0.0985
AGGTGAGC	-0.183
ACCCCCTG	-0.246
AGTGACCG	-0.235
GCCTAGGC	0.143
CCTGGCTC	0.0598
ACGTCTAG	0.101
CCGACGAA	-0.00926
ACCGTGGA	-0.181
CAGTAAGA	-0.00465

Sequence	PBM E-score
ACTCACGG	-0.185
CGTGGCAG	-0.176
GTTAGGGA	-0.113
CGCGTGGA	-0.159
CGTCATTA	0.152
AACCAACA	0.147
ATCATCCC	-0.21
CGTTTATC	-0.0283
ACTAAACA	0.139
GTCAACCA	0.04
ATGACGAC	-0.0743
ACCACGCG	0.0395
ATAGTGGG	-0.137
CATGAACC	0.175
CACGTAGC	-0.163
CCCCTAAG	-0.313
CGTTGCCC	-0.0798
GAATTGGA	-0.0738
TGACTCCA	-0.239
TTAATAAA	0.23
AACCGCGT	0.17
CACGTTCG	0.00382
CTAGGAGA	-0.143
CACAGGTC	-0.272
ATAGGCCG	0.013

Sequence	PBM E-score
GTACTTAA	0.172
ATACAAAC	0.135
GGCGCCGA	0.126
AACGAACA	0.278
AGCCTGCC	0.132
GAGACCGA	-0.103
TCCAAAAA	-0.0317
CAACGTCA	-0.0141
GACCATGC	0.00946
GTAATGGA	0.219
CCGTCAGG	-0.0484
ACTCCTGG	0.0113
CCGATACG	-0.168
AAGACTTC	-0.0716
TAATTTCA	0.0641
AGGCTGCG	-0.147
CCTGGGCC	-0.217
TCATAAGA	0.0222
CGCGGTAC	-0.146
TACATCCA	0.211
ACCGAGTG	-0.196
GACTCTAA	-0.0927
AGTATTCA	0.00548
TCATCCCA	-0.183
CCAGTAAA	0.0503

Sequence	PBM E-score
CCGGATAG	-0.147
AATGCAGC	-0.139
GGGGCATA	-0.208
ACCAAAAG	0.121
ACGCCCGA	-0.216
CGAAAAAG	0.142
AAAATTTA	0.0524
GCATCAAC	0.084
CCTGTAAG	0.282
ACTTCCCA	-0.163
CGACCGGA	-0.204
GTGGAAGA	-0.00089
ACTGGCGG	-0.117
GTAAGTCA	0.0347
CTAGGTGC	-0.016
CGGCCGAC	-0.252
ACAGAGAA	0.012
TATTGAGA	-0.0398
CCTTTAAG	0.193
ACCGGCGG	-0.284
CAAACCGC	-0.156
ACGCGCAA	0.105
GTGACTCA	-0.0442
ACCACCTG	-0.224
GCAGTCAC	0.305

Sequence	PBM E-score
AAGGGCTC	-0.132
CGATGCCA	-0.177
CACTCATA	-0.0651
AATTGTTG	0.0681
GATAAAGA	-0.0297
ACAGATTG	-0.0988
CCGTAACA	0.107
CGGCTGGC	-0.187
GCGAAAGC	-0.153
AGTACAGG	0.16
ATAATGTC	0.115
AGCATTTG	0.0978
AAAGAAGG	0.0623
CCGGGGAG	-0.237
ACCAGGGA	-0.053
AATCAAGT	0.262
ACTAGAAT	-0.0592
AACTATGT	0.278
ATGTAAGA	0.309
ATTTGTCA	0.144
ACACGACG	0.309
ACTTCCAA	0.0181
ATGCACAT	0.207
CTACACAG	0.348
AACGATTC	-0.107

Sequence	PBM E-score
ACTTTCGG	0.0375
CAAGTCGG	-0.254
CAAAGTAA	0.127
ACTTCAAA	-0.105
ACCCTTCG	-0.105
AATTTGGA	-0.0172
CGATATAA	0.112
AGAATTGG	-0.185
CCGGAAAA	-0.0407
CCATCCGG	-0.252
ACCAATGC	-0.0849
AAACACAG	0.274
CCCGTTAC	0.0828
TCGTCAAA	0.0184
AGCGAAGA	-0.176
AAGCTCCG	-0.214
CTACGGTA	0.0467
CTCTTCAA	-0.205
ACGAACTA	0.0713
ACTAATAG	0.0666
TCGGTCCA	-0.0654
ATGGCGAC	-0.254
